Data published in the supplement of paper PMC4967469.

Key:
Assay in all cases: Viability of human cancer cell lines after 72 h of drug (GDSC screen)
FTI-277 = compound: COC(=O)[C@H](CCSC)NC(=O)c1ccc(NC[C@@H](N)CS)cc1-c1ccccc1 [FTI-277]; settings: top dose 1.024 µM; top dose inferred
Experimental: (§1)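 Human cancer cell lines in 384-well plates, medium with 10% serum, drug for 72 h over a 256-fold dose range (nine 2-fold or five 4-fold steps up to the top dose). Adherent lines were fixed and stained with the nucleic acid dye Syto60, suspension lines read with resazurin; signal relative to control wells, capped at 0 and 100%. One two-parameter sigmoid per drug and line, fitted in a mixed model over all curves with the slope shared within a line.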

AMG-706 = compound: CC1(C)CNc2cc(NC(=O)c3cccnc3NCc3ccncc3)ccc21 [AMG-706]; settings: top dose 2 µM; top dose inferred
Experimental: as §1

Docetaxel = compound: CC(=O)O[C@@]12CO[C@@H]1C[C@H](O)[C@@]1(C)C(=O)[C@H](O)C3=C(C)[C@@H](OC(=O)[C@H](O)[C@@H](NC(=O)OC(C)(C)C)c4ccccc4)C[C@@](O)([C@@H](OC(=O)c4ccccc4)[C@H]21)C3(C)C [Docetaxel]; settings: top dose 0.0125 µM
Experimental: as §1

YM155 = compound: COCC[n+]1c2c(n(Cc3cnccn3)c1C)C(=O)c1ccccc1C2=O [YM155]; settings: top dose 5.12 µM
Experimental: as §1

SB-715992 = compound: Cc1ccc(C(=O)N(CCCN)[C@@H](c2nc3cc(Cl)ccc3c(=O)n2Cc2ccccc2)C(C)C)cc1 [SB-715992]; settings: top dose 0.128 µM; top dose inferred
Experimental: as §1

JQ1 = compound: Cc1sc2c(c1C)C(c1ccc(Cl)cc1)=N[C@@H](CC(=O)OC(C)(C)C)c1nnc(C)n1-2 [JQ1]
Experimental: as §1

Belinostat = compound: O=C(/C=C/c1cccc(S(=O)(=O)Nc2ccccc2)c1)NO [Belinostat]; settings: top dose 20 µM; top dose inferred
Experimental: as §1

JNK Inhibitor VIII = compound: CCOc1nc(NC(=O)Cc2cc(OC)ccc2OC)cc(N)c1C#N [JNK Inhibitor VIII]; settings: top dose 10 µM; top dose inferred
Experimental: as §1

NSC-207895 = compound: CN1CCN(c2ccc([N+](=O)[O-])c3no[n+]([O-])c23)CC1 [NSC-207895]; settings: top dose 20 µM; top dose inferred
Experimental: as §1

OSI-906 = compound: C[C@]1(O)C[C@@H](c2nc(-c3ccc4ccc(-c5ccccc5)nc4c3)c3c(N)nccn32)C1 [OSI-906]; settings: top dose 2.56 µM; top dose inferred
Experimental: as §1

JNJ-26854165 = compound: c1ccc2c(CCNc3ccc(Nc4ccncc4)cc3)c[nH]c2c1 [JNJ-26854165]; settings: top dose 10 µM
Experimental: as §1

[1] = top dose 1 µM, screen: GDSC drug entry 1218, top dose inferred
[2] = top dose 2.56 µM, screen: GDSC drug entry 163

Cell Line	AUC (FTI-277)	IC50 (FTI-277)	AUC (AMG-706)	IC50 (AMG-706)	AUC (Docetaxel)	IC50 (Docetaxel)	AUC (YM155)	IC50 (YM155)	AUC (SB-715992)	IC50 (SB-715992)	AUC (JQ1; [1])	IC50 (JQ1; [1])	AUC (JQ1; [2])	IC50 (JQ1; [2])	AUC (Belinostat)	IC50 (Belinostat)	AUC (JNK Inhibitor VIII)	IC50 (JNK Inhibitor VIII)	AUC (NSC-207895)	IC50 (NSC-207895)	AUC (OSI-906)	IC50 (OSI-906)	AUC (JNJ-26854165)	IC50 (JNJ-26854165)
LoVo (large intestine, adherent)	0.959	> 1020 nM	0.974	> 2000 nM	0.87	11.9 nM	0.643	800 nM	0.909	> 128 nM	0.986	> 1000 nM	0.749	838 nM	0.567	1920 nM	0.967	> 10 µM	0.983	> 20 µM	0.984	> 2560 nM	–	–
NCI-H810 (large cell lung carcinoma, adherent)	0.978	> 1020 nM	0.983	> 2000 nM	0.811	6.29 nM	0.063	< 20 nM	0.777	49.2 nM	0.987	> 1000 nM	0.591	281 nM	0.181	145 nM	0.988	> 10 µM	0.93	> 20 µM	0.887	> 2560 nM	–	–
COLO-783 (melanoma, adherent)	0.986	> 1020 nM	0.907	> 2000 nM	0.921	> 12.5 nM	0.651	825 nM	0.982	> 128 nM	0.967	> 1000 nM	0.929	> 2560 nM	0.762	6890 nM	0.959	> 10 µM	0.99	> 20 µM	0.982	> 2560 nM	–	–
HCC-78 (lung adenocarcinoma, adherent)	0.983	> 1020 nM	0.929	> 2000 nM	0.829	9.67 nM	0.047	< 20 nM	0.763	53.8 nM	0.948	> 1000 nM	0.963	> 2560 nM	0.336	402 nM	0.933	> 10 µM	0.801	11.7 µM	0.982	> 2560 nM	–	–
HT-1197 (bladder, adherent)	0.923	> 1020 nM	0.978	> 2000 nM	0.873	> 12.5 nM	0.036	< 20 nM	0.957	> 128 nM	0.982	> 1000 nM	0.569	255 nM	0.429	768 nM	0.973	> 10 µM	0.86	> 20 µM	0.885	> 2560 nM	–	–
PCI-30 (head and neck, adherent)	0.984	> 1020 nM	0.973	> 2000 nM	0.888	> 12.5 nM	–	–	0.985	> 128 nM	0.982	> 1000 nM	0.979	> 2560 nM	0.805	12900 nM	0.98	> 10 µM	0.983	> 20 µM	0.872	> 2560 nM	0.913	> 10 µM
LNZTA3WT4 (glioma, adherent)	0.983	> 1020 nM	0.959	> 2000 nM	0.826	7.35 nM	0.864	4330 nM	0.964	> 128 nM	0.876	964 nM	0.745	792 nM	–	–	0.987	> 10 µM	0.981	> 20 µM	0.983	> 2560 nM	0.928	> 10 µM
HSC-2 (head and neck, adherent)	0.952	> 1020 nM	0.983	> 2000 nM	0.497	0.765 nM	0.022	< 20 nM	0.952	> 128 nM	0.983	> 1000 nM	0.509	169 nM	0.612	2470 nM	0.989	> 10 µM	0.989	> 20 µM	0.983	> 2560 nM	–	–
LS-180 (large intestine, adherent)	0.982	> 1020 nM	0.976	> 2000 nM	0.908	> 12.5 nM	0.19	32.2 nM	0.868	> 128 nM	0.983	> 1000 nM	0.648	439 nM	–	–	0.976	> 10 µM	0.878	> 20 µM	0.913	> 2560 nM	0.879	> 10 µM
HCC1937 (breast, adherent)	0.983	> 1020 nM	0.926	> 2000 nM	0.853	12.2 nM	0.112	< 20 nM	0.918	> 128 nM	0.967	> 1000 nM	0.887	> 2560 nM	0.522	1440 nM	0.967	> 10 µM	0.985	> 20 µM	0.974	> 2560 nM	–	–
CHSA0011 (chondrosarcoma, adherent)	0.98	> 1020 nM	0.675	473 nM	0.905	> 12.5 nM	0.13	< 20 nM	0.979	> 128 nM	0.974	> 1000 nM	0.838	> 2560 nM	0.849	> 20000 nM	0.924	> 10 µM	0.964	> 20 µM	0.98	> 2560 nM	–	–
OE33 (oesophagus, adherent)	0.95	> 1020 nM	0.984	> 2000 nM	0.819	8.89 nM	–	–	0.973	> 128 nM	0.982	> 1000 nM	0.729	825 nM	0.611	2670 nM	0.981	> 10 µM	0.895	> 20 µM	0.97	> 2560 nM	0.833	8.24 µM

Lines with a small IC50 respond at low doses; where the fit passes the top or lowest dose, that dose stands as a limit. AUC sums up the same curve from the lowest dose to the 256-fold higher top dose; it is 1 without any effect and falls as sensitivity rises. For part of these data: An inferred top dose comes from the curve model; the source does not state it. For part of these data: Where an entry number is given, a second screen of the drug exists; the two often differ.
